Laboratory results published in PubChem BioAssay AID1845216 (Molecular Pharmacology Branch, DTP, NCI, 2023).
The source holds more than one record for some entries. This list holds those alone. An entry can have further records. Values given together repeat one measurement in other runs, samples, wells, individuals or studies.

System: SW 982 tumor spheroid viability
Assay: Anticancer human tumor SW 982 cell line growth inhibition;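 note: spheroids exposed to compound for 7 days before readout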
Conditions: stronger effect = lower value, spheroids with HUVEC and MSC
Excerpt: Multicellular complex tumor spheroid response to DNA repair inhibitors in combination with DNA-damaging drugs
This study explores the anticancer activities of DNA-damaging drugs and inhibitors of DNA damage repair, both as single agents and in combinations. Complex tumor spheroids comprised of malignant cells, endothelial cells and mesenchymal stem cells served as an in vitro model for human solid tumors. This model system incorporates physiologically relevant features and patient-derived or established malignant cell lines with clinically relevant genetic alterations from many tumor types. Twenty-six patient-derived or established malignant cell lines were evaluated representing sarcoma, melanoma, small cell lung cancer (SCLC), non-small cell lung cancer (NSCLC), as well as bladder, ovarian and pancreatic cancers. The concentration ranges selected for each drug and investigational agent were based upon clinically achievable concentrations if the clinical Cmax of the agent was known.
Compounds. The drugs and compounds olaparib (NSC753686), talazoparib (NSC767125), berzosertib (NSC777718), elimusertib (NSC800525), nedisertib (NSC802822), VX-984 (NSC792969), AZD-1390 (NSC803789), temozolomide (NSC362856), topotecan (NSC609699), trabectedin (NSC813783), staurosporine (NSC755774), and gemcitabine (NSC613327) were obtained from the National Cancer Institute (NCI) Developmental Therapeutics Program Chemical Repository. The FDA-approved anticancer drug set is available from the Developmental Therapeutics Program at https://dtp.cancer.gov/organization/dscb/obtaining/available_plates.htm. […] The stock solutions were prepared in dimethyl sulfoxide (DMSO, Sigma-Aldrich, St. Louis, MO, cat. D2650) at 400-fold the tested concentration and stored at -70 degrees C. Prior to their use, the stock solutions were diluted in fresh medium and the final DMSO concentration in the assay was 0.25% (v/v). All drugs and investigational agents were tested over a range starting from a high concentration at or near the clinical Cmax and decreasing in half-log increments. If the clinical Cmax for an agent had not been determined, the highest concentration tested was 10 microM.
Cell Lines. The patient-derived cancer cell (PDC) lines: 156681-154-R-J1-PDC, 283228-195-R-J1-PDC, 287954-098-R-J1-PDC, 292921-168-R-J2-PDC, 349418-098-R-PDC, 425362-245-T-J1-PDC, 556581-035-R-J1-PDC, and BL0293-F563-PDC were received from the NCI Patient-Derived Models Repository (PDMR, https://pdmr.cancer.gov). The established cell lines HS-SY-2 (RRID:CVCL_8719), MPNST, and SYO-1 (RRID:CVCL_7146) were obtained from the Sloan Kettering Institute. The alveolar soft parts sarcoma cell line ASPS-1 (RRID:CVCL_S738) was established at the NCI and grown from internal seed stocks. […]

With COc1cc2c(cc1O)CCNC21CSC2c3c(OC(C)=O)c(C)c4c(c3C(COC1=O)N1C(O)C3Cc5cc(C)c(OC)c(O)c5C(C21)N3C)OCO4 (centres undefined) the viability, T/C (compound 30 pM) was 109, 99.2, 96, 96.9, 102, 100, 97.4, 132, 101, 92.4%, the viability, T/C (compound 94.9 pM) was 97.4, 99.8, 98, 89.1, 97.7, 90.9, 95.7, 129, 89.3, 103% and the viability, T/C (compound alone 0.0003 µM) was 75.9, 77.4, 77.7, 67.9, 73.5, 69.4, 86.4, 121, 87.3, 79.2%. The viability, T/C (compound alone 0.000949 µM) was 35.6, 37.8, 43.9, 32.4, 34.4, 36.8, 44, 68.1, 32.2, 39.4%.
